# In all, about 1,000 compounds were measured (“relative growth in counter assay (no AraC = 100%, AraC + DMSO = 0%)”: median about -1.1, highest 2% from about 20 on). This is one part of the list.
# Tested on: HEK293FT dCK*-only
# Test: relative growth in counter assay (no AraC = 100%, AraC + DMSO = 0%); higher = more growth rescue independent of IKZF1
# Conditions: compound concentration: 5 uM; AraC concentration: 0.3 uM; overnight pretreatment + 4 days AraC
# Experimental: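 Growth recovery screen of the molecular-glue-like (Specs) library. HEK293FT cells expressing a dCK*-IKZF1 fusion (primary) or dCK* alone (counter) were pretreated overnight with compound at 5 uM, then given 0.3 uM AraC for 4 days. Hoechst nuclei were counted by imaging. Primary: normalised to pomalidomide (100%) and DMSO (0%), mean of 2 replicates. Counter: normalised to no-AraC (100%) and AraC+DMSO (0%), single replicate.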
row,SMILES,relative growth in counter assay [%]
1,Cc1cnc(Nc2cccc(C3CN(C(=O)CCn4cnc5ccccc54)CCO3)n2)s1 (stereo unspecified),4.68
2,Cc1cnc(Nc2cccc(C3CN(C(=O)CCOc4cccc(F)c4)CCO3)n2)s1 (stereo unspecified),19.7
3,Cc1ccnc(NS(=O)(=O)c2ccc(NC(=O)c3ccco3)cc2)n1,3.62
4,CC(C)C(=O)N1CCOC(c2cccc(Nc3nccs3)n2)C1 (stereo unspecified),-3.79
5,CCCc1cnc(Nc2cccc(C3CCN(C(=O)[C@@H]4CCCCN4)CC3)n2)s1,-21.3
6,COc1nccnc1NS(=O)(=O)c1ccc(N)cc1,-17.5
7,Cc1nc(Nc2cccc(C3CCCN3C(=O)C(C)(C)c3cccc(F)c3)n2)sc1C (stereo unspecified),6.07
8,COc1ccc2ccccc2c1/C=N/NS(=O)(=O)c1ccc(C)c([N+](=O)[O-])c1,-4.04
9,COc1cc(SC)ccc1C(=O)Nc1ccc(S(=O)(=O)Nc2nccc(C)n2)cc1,-5.96
10,NC1(C(=O)N2CCC(c3cccc(Nc4ncc(-c5ccccc5)s4)n3)CC2)CC1,-4.57
11,COCCC(=O)N1CCC(c2cccc(Nc3nc(C)c(C)s3)n2)CC1,13.8
12,CCC(=O)Nc1ccc(S(=O)(=O)Nc2ccccn2)cc1,-0.4
13,O=C(/C=C/c1ccco1)N1CCC(c2cc3ccccc3c(Nc3nccs3)n2)CC1,-21.1
14,N#Cc1ccc(Oc2ccc(N3C(=O)c4ccc(Oc5ccccc5)cc4C3=O)cc2)cc1,-6.81
15,Cc1cnc(Nc2cccc(C3CN(C(=O)COc4cccc(F)c4)CCO3)n2)s1 (stereo unspecified),-7.34
16,COc1ccc(-c2csc(Nc3ccc(S(=O)(=O)Nc4nc(C)cc(C)n4)cc3)n2)cc1OC,7.3
17,Cc1ccnc(Nc2nc(-c3sc(NC(=O)c4ccccc4)nc3C)cs2)c1,68.2
18,O=C(CCc1[nH]nc2c1CCCC2)N1CCC(c2cccc(Nc3nccs3)n2)CC1,-25.4
19,CC(=O)N1CCCC1c1cccc(Nc2nccs2)n1 (stereo unspecified),-7.53
20,NC(=O)CN1CCCCC1c1csc(Nc2ccccn2)n1 (stereo unspecified),8.38
21,COCCOCC(=O)Nc1ccc(S(=O)(=O)Nc2cc(C)nc(C)n2)cc1,-4.9
22,Cc1csc(Nc2cccc(C3CN(C(=O)CCc4nc(C)no4)CCO3)n2)n1 (stereo unspecified),4.72
23,CN(C)Cc1cnc(Nc2cccc(C3CCN(C(=O)C4CCCCC4)CC3)n2)s1,-4.62
24,CC(CC(=O)Nc1ccc(S(=O)(=O)Nc2ncccn2)cc1)c1ccccc1 (stereo unspecified),0.16

row,SMILES,relative growth in counter assay [%]
1,CCCc1cnc(Nc2cccc(C3CCN(C(=O)C4CCCCN4C(=O)CN(C)C)CC3)n2)s1 (stereo unspecified),-3.09
2,O=C(C1COCCN1)N1CCC(c2cccc(Nc3ncc(Cl)s3)n2)CC1 (stereo unspecified),-25.1
3,CC(=O)Nc1ccc(S(=O)(=O)Nc2cc(C)nc(C)n2)cc1,2.38
4,Cc1csc(Nc2cccc(C3CCN(CC(=O)NCc4ccccn4)CC3)n2)n1,-13.2
5,Cc1ccc2[nH]nc(C(=O)N3CCCC3c3cccc(Nc4nc(C)cs4)n3)c2c1 (stereo unspecified),2.1
6,O=[N+]([O-])c1ccc(S(=O)(=O)Nc2ccc(Cl)cn2)cc1,9.98
7,Cc1cnc(Nc2cccc(C3CN(C(=O)CN(CCC(C)C)c4ccccc4)CCO3)n2)s1 (stereo unspecified),-0.69
8,CCOc1ccccc1OCC(=O)Nc1ccc(S(=O)(=O)Nc2ncccn2)cc1,2.46
9,O=C(Nc1ccc(S(=O)(=O)Nc2ncccn2)cc1)c1ccccc1Br,-0.83
10,Cc1cnc(Nc2cccc(CC3CCN(C(=O)CO)CC3)n2)s1,-16.1
11,Cn1cnc(S(=O)(=O)N2CCOC(c3cccc(Nc4ncc(CNC(=O)c5cccc(F)c5)s4)n3)C2)c1 (stereo unspecified),3.31
12,CN(CC(=O)N1CCC(c2cccc(Nc3ncc(-c4ccccc4)s3)n2)CC1)C(=O)OC(C)(C)C,-10.1
13,CC(C)c1ccc2[nH]c3nc(SCC(=O)Nc4ccc(F)cc4)nnc3c2c1,-14.8
14,Cc1ccnc(NS(=O)(=O)c2ccc(N3C(=O)c4ccccc4C3=O)cc2)n1,-0.67
15,O=C(Nc1ccc(S(=O)(=O)Nc2ncccn2)cc1)c1ccccc1Oc1ccccc1,-7.12
16,COC1CCC(C(=O)N2CCC(c3cccc(Nc4ncc(C)s4)n3)CC2)CC1 (stereo unspecified),-21.3
17,Cc1nc(Nc2cccc(C3CCN(C(=O)c4ccccn4)CC3)n2)sc1C,4.46
18,COc1cc(NS(=O)(=O)c2ccc(NC(=O)/C=C/C(=O)O)cc2)nc(OC)n1,2.31
19,CCCc1cnc(Nc2cccc(C3CN(C(=O)Cn4c(CC(C)C)nc5ccccc54)CCO3)n2)s1 (stereo unspecified),-20.3
20,CC(=O)N1CCC(Cc2cccc(Nc3nccs3)n2)CC1,-8.99
21,Cc1csc(Nc2cccc(C3CCN(C(=O)Cn4nc(C)cc4C)CC3)n2)n1,5.92
22,COc1cc(NS(=O)(=O)c2ccc(N/C=C\C(=O)c3cccs3)cc2)nc(OC)n1,-3.43
23,CCOC(=O)c1ccc(N2C(=O)c3ccc(Oc4ccc(NC(C)=O)cc4)cc3C2=O)cc1,-11
24,O=C(O)c1ccc(N2C(=O)c3ccc(Oc4ccccc4)cc3C2=O)cc1,8.38

row,SMILES,relative growth in counter assay [%]
1,COc1cc(NS(=O)(=O)c2ccc(NC(=O)c3c(OC)cccc3OC)cc2)nc(OC)n1,-1.93
2,O=C(/C=C/c1cnc[nH]1)N1CCC(c2cc3ccccc3c(Nc3nccs3)n2)CC1,-23
3,COc1ccc(/C=C(\C#N)C(=O)Nc2ccc(S(=O)(=O)Nc3ncccn3)cc2)cc1,-1.25
4,COCC(=O)N1CCC(c2cccc(Nc3ncc(C)s3)n2)CC1,-25.6
5,O=C(Nc1ccc(S(=O)(=O)Nc2ccccn2)cc1)c1ccc(Cl)c(Cl)c1,-3.14
6,COc1nccnc1NS(=O)(=O)c1ccc(NC(=S)NC(=O)c2cccnc2)cc1,2.58
7,Cc1cnc(Nc2cccc(C(CO)C3CCN(C(=O)C4CCCCC4)CC3)n2)s1 (stereo unspecified),0.31
8,Cc1csc(Nc2cccc(C3CCCN3C(=O)CO)n2)n1 (stereo unspecified),10.3
9,COc1cccc(OC)c1C(=O)N1CCOC(c2cccc(Nc3ncc(C)s3)n2)C1 (stereo unspecified),-4.53
10,COCC(=O)N1CCC(c2cccc(Nc3nc(C)cs3)n2)CC1,14
11,Cc1ccc2[nH]c3nc(SCC(=O)Nc4cc(Cl)ccc4C)nnc3c2c1,-6.45
12,CNC(=O)C1(c2cccc(Nc3ncc(C)s3)n2)CN(S(=O)(=O)c2cn(C)cn2)CCO1 (stereo unspecified),-2.93
13,COC(=O)C(c1cccc(Nc2ncc(C)s2)n1)C1CCN(C(=O)C2(NC(=O)OC(C)(C)C)CCCCC2)CC1 (stereo unspecified),9.03
14,Cc1cc(C)nc(NS(=O)(=O)c2ccc(NC(=O)CSc3nc4c(cc3C#N)CCC4)cc2)n1,-5.81
15,COc1cccc(C(=O)Nc2ccc(S(=O)(=O)Nc3nc(C)cc(C)n3)cc2)c1,-0.82
16,CCC(CC)C(=O)Nc1ccc(S(=O)(=O)Nc2ncccn2)cc1,2.05
17,Cn1cc(/C=C/C(=O)N2CCC(c3cc4ccccc4c(Nc4nccs4)n3)CC2)cn1,-25.6
18,Cc1ccc(Nc2nc(-c3sc(NC(=O)c4ccccc4)nc3C)cs2)nc1,74.3
19,NCC(=O)N1CCC(c2cccc(Nc3ncc(Cl)s3)n2)CC1,-23.9
20,COc1cc(NS(=O)(=O)c2ccc(Nc3nc(-c4cccs4)cs3)cc2)nc(OC)n1,1.07
21,Cc1ccn(CCC(=O)N2CCC(c3cccc(Nc4ncc(C)s4)n3)CC2)n1,4.45
22,N#CCN1CCCC(c2cccc(Nc3nc(C(=O)N4CCNC(=O)C4)cs3)n2)C1 (stereo unspecified),-2.35
23,O=C(Nc1ccc(S(=O)(=O)Nc2ncccn2)cc1)c1ccc([N+](=O)[O-])cc1,-6.83
24,COc1ccc(-c2csc(Nc3ccc(S(=O)(=O)Nc4nc(C)cc(C)n4)cc3)n2)cc1,-6.81

row,SMILES,relative growth in counter assay [%]
1,CCCCc1cnc(Nc2cccc(C3CCN(C(=O)C(C)(C)NC(=O)OC(C)(C)C)CC3)n2)s1,-22
2,Cc1cnc(Nc2cccc(C3CN(C(=O)C4CC4c4ccc(Cl)cc4)CCO3)n2)s1 (stereo unspecified),28.7
3,COc1ccccc1N1C(=O)c2ccc(Oc3ccc(N)cc3)cc2C1=O,11.9
4,NC(=O)CN1CCCC1c1csc(Nc2ccccn2)n1 (stereo unspecified),-5.04
5,COc1ccc(C(C)(C)C(=O)N2CCCC2c2cccc(Nc3nc(C)cs3)n2)cc1 (stereo unspecified),11
6,Cc1ccnc(NS(=O)(=O)c2ccc(NC(=O)C3c4ccccc4Oc4ccccc43)cc2)n1,-3.45
7,CCCc1cnc(Nc2cccc(C3CCN(C(=O)C4CCCCN4CCCO)CC3)n2)s1 (stereo unspecified),-21.2
8,COCCNC(=O)C1(c2cccc(Nc3ncc(C)s3)n2)CCN(C(=O)C2CCCCC2)CC1,-2.36
9,Cc1csc(Nc2cccc(C3CN(C(=O)COc4c(C)cccc4C)CCO3)n2)n1 (stereo unspecified),1.27
10,Cc1ccc(C)c2c1[nH]c1nc(SCC(=O)Nc3cccc(F)c3)nnc12,6.13
11,Cc1ccc(Nc2nc(C3CCCN(CC(N)=O)C3)cs2)nc1 (stereo unspecified),3.7
12,COc1ccc(CCC(=O)N2CCOC(c3cccc(Nc4nc(C)cs4)n3)C2)cc1 (stereo unspecified),19.5
13,CC(=O)Nc1ccc(Oc2ccc3c(c2)C(=O)N(c2ccc4ccccc4c2)C3=O)cc1,-7.95
14,Cc1cnc(Nc2cccc(CC3CCN(C(=O)c4cccc(Cl)c4)CC3)n2)s1,-18.2
15,COc1ccccc1CCC(=O)N1CCC(c2cccc(Nc3ncc(C)s3)n2)CC1,10.2
16,Cc1cc(C)nc(NS(=O)(=O)c2ccc(Nc3nc(-c4c(C)nc5ccccn45)cs3)cc2)n1,-0.5
17,CCOc1ccccc1C(=O)Nc1ccc(S(=O)(=O)Nc2nc(C)cc(C)n2)cc1,1.48
18,Cc1nc(Nc2cccc(C3CCCN3C(=O)COc3ccc(F)cc3)n2)sc1C (stereo unspecified),-0.52
19,O=C(Nc1ccc(S(=O)(=O)Nc2ncccn2)cc1)c1cncc(Br)c1,12.3
20,CC(C)(C)N1CC(C(=O)Nc2ccc(S(=O)(=O)Nc3ncccn3)cc2)CC1=O (stereo unspecified),4.79
21,COC(=O)C(c1cccc(Nc2ncc(C)s2)n1)C1CCN(C(=O)c2cccc(F)c2F)CC1 (stereo unspecified),-3.23
22,CCCOc1cccc(C(=O)Nc2ccc(S(=O)(=O)Nc3nc(C)cc(C)n3)cc2)c1,8.01
23,O=C(COc1cccc(Cl)c1)Nc1ccc(S(=O)(=O)Nc2ccccn2)cc1,-2.69
24,Cc1ccc(C(=O)Nc2ccc(S(=O)(=O)Nc3ccccn3)cc2)cc1C,0.61

# Source: the supplement of paper PMC12340641
